{"source": "the supplement of paper PMC8728848", "binders": {"B1": {"name": "rAAL-2 (Agrocybe aegerita) (protein)", "chain": "MTSNVITQDLPIPVASRGFADIVGFGLDGVVIGRNAVNLQPFLAVKNFAQNAGGWLTTKHVRLIADTTGTGKGDIVGFGNAGVYVSVNNGKNTFADPPKMVIANFGYDAGGWRVEKHLRYLADIRKIGRADIIGFGEKGVLVSRNNGGLNFGPATLVLKDFGYDAGGWRLDRHLRFLADVTGNGHLDIVGFGDKHVFISRNNGDGTFAPAKSVIDNFCIDAGGWKIGDHPRFVADLTGDGTADIIGCGKAGCWVALNNGGGVFGQVKLVINDFGTDKGWQAAKHPRFIADLTGNGRGDVVGFGNAGVYVALNNGDGTFQSAKLVLKDFGVQQGWTVSKHRRFVVDLTGDGCADIIGFGEKETLVSYNDGKGNFGPVKALTNDFSFSGGKWAPETTVCWMANLDSSRH"}}, "experiment_in_all_cases": "glycan array binding signal (z-score within array); higher = stronger binding", "conditions_in_all_cases": "glycan notation: IUPAC condensed, linker removed", "key": {"[1]": {"biological_target": "Gal(a1-3)[Gal(a1-4)]Gal(b1-4)GlcNAc", "summary_of_the_method": "(§1)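 Glycan array data were curated from 3228 arrays in the Consortium for Functional Glycomics database and kept only where the protein sequence was available. Glycan names were converted to IUPAC-condensed notation, and columns mapping to the same glycan were averaged. The binding signal is a within-array Z-score, averaged across arrays of the same protein sequence at different concentrations or buffers and across linkers. Negative Z-scores can be read as non-binding.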"}, "[2]": {"biological_target": "Gal(a1-4)Gal(b1-3)GlcNAc(b1-2)Man(a1-3)[Gal(a1-4)Gal(b1-3)GlcNAc(b1-2)Man(a1-6)]Man(b1-4)GlcNAc(b1-4)GlcNAc", "summary_of_the_method": "as §1"}, "[3]": {"biological_target": "Gal(a1-4)Gal(b1-4)Glc", "summary_of_the_method": "as §1"}, "[4]": {"biological_target": "Gal(a1-4)Gal(b1-4)GlcNAc", "summary_of_the_method": "as §1"}, "[5]": {"biological_target": "Gal(a1-4)Gal(b1-4)GlcNAc(b1-2)Man(a1-3)[Gal(a1-4)Gal(b1-4)GlcNAc(b1-2)Man(a1-6)]Man(b1-4)GlcNAc(b1-4)GlcNAc", "summary_of_the_method": "as §1"}, "[6]": {"biological_target": "Gal(a1-4)Gal(b1-4)GlcNAc(b1-3)Gal(b1-4)Glc", "summary_of_the_method": "as §1"}, "[7]": {"biological_target": "Gal(a1-4)GlcNAc", "summary_of_the_method": "as §1"}, "[8]": {"biological_target": "Gal(a1-6)Glc", "summary_of_the_method": "as §1"}, "[9]": {"biological_target": "Gal(b1-2)Gal", "summary_of_the_method": "as §1"}, "[10]": {"biological_target": "Gal(b1-3)Gal", "summary_of_the_method": "as §1"}, "[11]": {"biological_target": "Gal(b1-3)Gal(b1-4)GlcNAc", "summary_of_the_method": "as §1"}, "[12]": {"biological_target": "Gal(b1-3)Gal(b1-4)GlcNAc(b1-2)Man(a1-3)[Gal(b1-3)Gal(b1-4)GlcNAc(b1-2)Man(a1-6)]Man(b1-4)GlcNAc(b1-4)GlcNAc", "summary_of_the_method": "as §1"}, "[13]": {"biological_target": "Gal(b1-3)GalNAc", "summary_of_the_method": "as §1"}, "[14]": {"biological_target": "Gal(b1-3)GalNAc(a1-3)[Fuc(a1-2)]Gal(b1-4)Glc", "summary_of_the_method": "as §1"}, "[15]": {"biological_target": "Gal(b1-3)GalNAc(a1-3)[Fuc(a1-2)]Gal(b1-4)GlcNAc", "summary_of_the_method": "as §1"}, "[16]": {"biological_target": "Gal(b1-3)GalNAc(b1-3)Gal", "summary_of_the_method": "as §1"}, "[17]": {"biological_target": "Gal(b1-3)GalNAc(b1-3)Gal(a1-4)Gal(b1-4)Glc", "summary_of_the_method": "as §1"}, "[18]": {"biological_target": "Gal(b1-3)GalNAc(b1-4)Gal(b1-4)Glc", "summary_of_the_method": "as §1"}, "[19]": {"biological_target": "Gal(b1-3)GalNAc(b1-4)[Neu5Ac(a2-3)]Gal(b1-4)Glc", "summary_of_the_method": "as §1"}, "[20]": {"biological_target": "Gal(b1-3)GlcNAc", "summary_of_the_method": "as §1"}, "[21]": {"biological_target": "Gal(b1-3)GlcNAc(a1-3)Gal(b1-4)GlcNAc", "summary_of_the_method": "as §1"}, "[22]": {"biological_target": "Gal(b1-3)GlcNAc(a1-6)Gal(b1-4)GlcNAc", "summary_of_the_method": "as §1"}, "[23]": {"biological_target": "Gal(b1-3)GlcNAc(b1-2)Man", "summary_of_the_method": "as §1"}, "[24]": {"biological_target": "Gal(b1-3)GlcNAc(b1-2)Man(a1-3)[Gal(b1-3)GlcNAc(b1-2)Man(a1-6)]Man(b1-4)GlcNAc(b1-4)GlcNAc", "summary_of_the_method": "as §1"}, "[25]": {"biological_target": "Gal(b1-3)GlcNAc(b1-2)Man(a1-3)[Gal(b1-3)GlcNAc(b1-2)Man(a1-6)]Man(b1-4)GlcNAc(b1-4)[Fuc(a1-6)]GlcNAc", "summary_of_the_method": "as §1"}, "[26]": {"biological_target": "Gal(b1-3)GlcNAc(b1-2)Man(a1-3)[GlcNAc(b1-4)][Gal(b1-3)GlcNAc(b1-2)Man(a1-6)]Man(b1-4)GlcNAc(b1-4)GlcNAc", "summary_of_the_method": "as §1"}, "[27]": {"biological_target": "Gal(b1-3)GlcNAc(b1-2)[Gal(b1-3)GlcNAc(b1-6)]Man(a1-6)[Gal(b1-3)GlcNAc(b1-2)Man(a1-3)]Man(b1-4)GlcNAc(b1-4)GlcNAc", "summary_of_the_method": "as §1"}, "[28]": {"biological_target": "Gal(b1-3)GlcNAc(b1-3)Gal(b1-3)GlcNAc", "summary_of_the_method": "as §1"}, "[29]": {"biological_target": "Gal(b1-3)GlcNAc(b1-3)Gal(b1-4)Glc", "summary_of_the_method": "as §1"}, "[30]": {"biological_target": "Gal(b1-3)GlcNAc(b1-3)Gal(b1-4)GlcNAc", "summary_of_the_method": "as §1"}, "[31]": {"biological_target": "Gal(b1-3)GlcNAc(b1-3)Gal(b1-4)GlcNAc(b1-2)Man(a1-3)[Gal(b1-3)GlcNAc(b1-3)Gal(b1-4)GlcNAc(b1-2)Man(a1-6)]Man(b1-4)GlcNAc(b1-4)GlcNAc", "summary_of_the_method": "as §1"}, "[32]": {"biological_target": "Gal(b1-3)GlcNAc(b1-3)Gal(b1-4)GlcNAc(b1-2)[Gal(b1-3)GlcNAc(b1-3)Gal(b1-4)GlcNAc(b1-6)]Man(a1-6)[Gal(b1-3)GlcNAc(b1-3)Gal(b1-4)GlcNAc(b1-2)Man(a1-3)]Man(b1-4)GlcNAc(b1-4)[Fuc(a1-6)]GlcNAc", "summary_of_the_method": "as §1"}, "[33]": {"biological_target": "Gal(b1-3)GlcNAc(b1-3)Gal(b1-4)GlcNAc(b1-3)Gal(b1-4)GlcNAc(b1-2)[Gal(b1-3)GlcNAc(b1-3)Gal(b1-4)GlcNAc(b1-3)Gal(b1-4)GlcNAc(b1-6)]Man(a1-6)[Gal(b1-3)GlcNAc(b1-3)Gal(b1-4)GlcNAc(b1-3)Gal(b1-4)GlcNAc(b1-2)Man(a1-3)]Man(b1-4)GlcNAc(b1-4)[Fuc(a1-6)]GlcNAc", "summary_of_the_method": "as §1"}, "[34]": {"biological_target": "Gal(b1-3)GlcNAc(b1-3)Gal(b1-4)GlcNAc(b1-6)[Gal(b1-3)GlcNAc(b1-3)]Gal(b1-4)Glc", "summary_of_the_method": "as §1"}, "[35]": {"biological_target": "Gal(b1-3)GlcNAc(b1-3)Gal(b1-4)[Fuc(a1-3)]GlcNAc", "summary_of_the_method": "as §1"}, "[36]": {"biological_target": "Gal(b1-3)GlcNAc(b1-3)Gal(b1-4)[Fuc(a1-3)]GlcNAc(b1-6)[Gal(b1-3)GlcNAc(b1-3)]Gal(b1-4)Glc", "summary_of_the_method": "as §1"}, "[37]": {"biological_target": "Gal(b1-3)GlcNAc(b1-3)GalNAc", "summary_of_the_method": "as §1"}}, "note": "Some of the results follow."}
{"binder": "B1", "values": [{"measurement": "glycan array binding signal (z-score)", "setting": "[1]", "value": -0.293}, {"measurement": "glycan array binding signal (z-score)", "setting": "[2]", "value": 0.191}, {"measurement": "glycan array binding signal (z-score)", "setting": "[3]", "value": -0.055}, {"measurement": "glycan array binding signal (z-score)", "setting": "[4]", "value": -0.249}, {"measurement": "glycan array binding signal (z-score)", "setting": "[5]", "value": 0.062}, {"measurement": "glycan array binding signal (z-score)", "setting": "[6]", "value": -0.194}, {"measurement": "glycan array binding signal (z-score)", "setting": "[7]", "value": -0.183}, {"measurement": "glycan array binding signal (z-score)", "setting": "[8]", "value": -0.108}, {"measurement": "glycan array binding signal (z-score)", "setting": "[9]", "value": -0.338}, {"measurement": "glycan array binding signal (z-score)", "setting": "[10]", "value": -0.27}, {"measurement": "glycan array binding signal (z-score)", "setting": "[11]", "value": -0.313}, {"measurement": "glycan array binding signal (z-score)", "setting": "[12]", "value": -0.149}, {"measurement": "glycan array binding signal (z-score)", "setting": "[13]", "value": -0.241}, {"measurement": "glycan array binding signal (z-score)", "setting": "[14]", "value": 0.116}, {"measurement": "glycan array binding signal (z-score)", "setting": "[15]", "value": -0.131}, {"measurement": "glycan array binding signal (z-score)", "setting": "[16]", "value": -0.498}, {"measurement": "glycan array binding signal (z-score)", "setting": "[17]", "value": -0.152}, {"measurement": "glycan array binding signal (z-score)", "setting": "[18]", "value": -0.272}, {"measurement": "glycan array binding signal (z-score)", "setting": "[19]", "value": -0.36}, {"measurement": "glycan array binding signal (z-score)", "setting": "[20]", "value": -0.242}, {"measurement": "glycan array binding signal (z-score)", "setting": "[21]", "value": -0.083}, {"measurement": "glycan array binding signal (z-score)", "setting": "[22]", "value": -0.314}, {"measurement": "glycan array binding signal (z-score)", "setting": "[23]", "value": -0.274}, {"measurement": "glycan array binding signal (z-score)", "setting": "[24]", "value": -0.015}, {"measurement": "glycan array binding signal (z-score)", "setting": "[25]", "value": -0.223}, {"measurement": "glycan array binding signal (z-score)", "setting": "[26]", "value": -0.115}, {"measurement": "glycan array binding signal (z-score)", "setting": "[27]", "value": -0.086}, {"measurement": "glycan array binding signal (z-score)", "setting": "[28]", "value": -0.172}, {"measurement": "glycan array binding signal (z-score)", "setting": "[29]", "value": -0.157}, {"measurement": "glycan array binding signal (z-score)", "setting": "[30]", "value": -0.299}, {"measurement": "glycan array binding signal (z-score)", "setting": "[31]", "value": -0.255}, {"measurement": "glycan array binding signal (z-score)", "setting": "[32]", "value": -0.063}, {"measurement": "glycan array binding signal (z-score)", "setting": "[33]", "value": -0.184}, {"measurement": "glycan array binding signal (z-score)", "setting": "[34]", "value": -0.234}, {"measurement": "glycan array binding signal (z-score)", "setting": "[35]", "value": -0.271}, {"measurement": "glycan array binding signal (z-score)", "setting": "[36]", "value": -0.38}, {"measurement": "glycan array binding signal (z-score)", "setting": "[37]", "value": -0.228}]}
